Experimental data as given in PubChem BioAssay AID651820 (National Center for Advancing Translational Sciences (NCATS), 2012).
The whole screen tested about 340,000 compounds, of which about 12,000 (3.5%) were called active. The inconclusive results got no clear call from the source; some entries with a clear call stand among them for comparison. The call rests on the fitted dose curve; in most records, active means well fitted inhibition curve with a large enough effect; inconclusive means small, poorly fitted or top-dose-only effect, or another doubt; inactive means no such curve, though single readings can be large or run the other way. No potency is given beside an inconclusive call; the fits are too rough. A structure can be active in one record and inactive in another.

assay: qHTS Assay for Inhibitors of Hepatitis C Virus (HCV); conditions: Huh7.5.1 HCVcc-Cre (HCVcc is cell-culture hepatitis C virus) infection, luciferase reporter, 44 h; series mostly up to 41.8 µM
Method in brief: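 Reporter virus HCVcc-Cre (~0.5 moi) infects cells exposed to compound; seeding density 1,000 cells/well with 4 h settling beforehand. Luminescence, 15 sec read, taken 44 h post-infection following a 15 min RT substrate incubation.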
Potency means the concentration at half of the fitted maximal effect; tags describe the fitted curve by direction and shape.

Question: For `O=C(NCCC1=CCCCC1)c1c(O)nc2sccn2c1=O`, which Potency is on record?
Answer: The Potency was inconclusive [inhibitor, partial curve].

Question: Which Potency does the source give for `O=C(Cn1cc(/C=N/NC(=O)c2ccccc2Br)c2ccccc21)Nc1ccc(F)cc1` here?
Answer: The Potency was inconclusive [inhibitor, single point].

Question: With `CCc1ccccc1-n1nnnc1SCC(=O)Nc1cc(C)on1` as the compound, how does the Potency read?
Answer: The Potency was “inactive”.

Question: Which Potency does the source give for `Cc1ccc(N(NC(=O)C(O)(c2ccccc2)c2ccccc2)C(=O)CCl)cc1` here?
Answer: Its Potency is active: 3.16 µM.

Question: Which Potency does the source give for `CCOc1ccc(S(=O)(=O)N(C)c2ccc(OCC(=O)NCC3CCCCC3)cc2)cc1` here?
Answer: The Potency was inconclusive [inhibitor, single point].

Question: For `O=C(/C=C/c1ccco1)Nc1ccc(CN2CCOCC2)cc1`, which Potency is on record?
Answer: The Potency was “inactive”.

Question: For `NS(=O)(=O)c1ccc(NC(=S)NCc2ccc3c(c2)OCO3)cc1`, which Potency is on record?
Answer: Its Potency is “inactive”.

Question: For `Cn1c2c(c3cc([N+](=O)[O-])ccc31)CCCC2`, which Potency is on record?
Answer: The Potency was inconclusive [inhibitor, full curve].

Question: Which Potency does the source give for `COc1ccccc1C(=O)Nc1ccccc1N1CCN(C(=O)c2ccc(Cl)cc2)CC1` here?
Answer: The Potency was inconclusive [inhibitor, single point].

Question: Which Potency does the source give for `COc1ccc2nc(C)cc(NCc3ccc(F)cc3)c2c1` here?
Answer: The Potency was “inactive”.

Question: Which Potency does the source give for `O=[N+]([O-])c1ccc(CS(=O)Cc2ccccc2)cc1` (stereo not drawn) here?
Answer: The Potency was “inactive”.

Question: Which Potency does the source give for `O=[N+]([O-])c1cc(/C=N/n2c(-c3ccncc3)n[nH]c2=S)ccc1Cl` here?
Answer: The Potency was inconclusive [inhibitor, partial curve, poor fit].

Question: For `CN(C)C(=O)/C(=C/c1cn(-c2ccccc2)nc1-c1cccc([N+](=O)[O-])c1)NC(=O)c1ccccc1`, which Potency is on record?
Answer: The Potency was “inactive”.

Question: With `O=C(NCc1nc(-c2ccc(Cl)cc2)no1)c1ccco1` as the compound, how does the Potency read?
Answer: Its Potency is inconclusive [inhibitor, single point].

Question: With `COc1ccccc1C(=O)Nc1ccnn1C1CCN(C(=O)c2cnsn2)CC1` as the compound, how does the Potency read?
Answer: Its Potency is “inactive”.

Question: With `CCOc1ccc(S(=O)(=O)/N=C(/Nc2ccc(C)c(S(=O)(=O)N3CCOCC3)c2)c2ccccc2)cc1` as the compound, how does the Potency read?
Answer: Its Potency is inconclusive [inhibitor, partial curve].

Question: With `CC1Cc2ccccc2N1C(=O)CN(C)CC(=O)Nc1ccc(OC(F)(F)F)cc1` (stereo not drawn) as the compound, how does the Potency read?
Answer: The Potency was inconclusive [inhibitor, single point].

Question: Which Potency does the source give for `O=C(CSc1ccc(-c2cccs2)nn1)NCCc1ccccc1` here?
Answer: Its Potency is “inactive”.

Question: For `Cc1csc(NC(=O)CN(C)S(=O)(=O)c2cccc3cccnc23)n1`, which Potency is on record?
Answer: The Potency was inconclusive [inhibitor, partial curve].

Question: Which Potency does the source give for `CN(C)CCCNC(NC(=O)/C=C/c1ccccc1)C(Cl)(Cl)Cl` (stereo not drawn) here?
Answer: Its Potency is inconclusive [inhibitor, partial curve].

Question: Which Potency does the source give for `CCCc1ccc(OCc2ccc(C(=O)N/N=C/c3cccnc3)o2)cc1` here?
Answer: Its Potency is “inactive”.

Question: For `CCN(c1ccccc1)S(=O)(=O)c1cc(C(=O)Nc2ccc(Br)cc2)ccc1F`, which Potency is on record?
Answer: The Potency was active: 2.82 µM.

Question: With `O=c1oc(-c2ccc(O)c(O)c2)cc2cc(O)cc(O)c12` as the compound, how does the Potency read?
Answer: The Potency was “inactive”.

Question: With `N/C(=N\OC(=O)c1cccc(F)c1)c1ccccn1` as the compound, how does the Potency read?
Answer: Its Potency is “inactive”.

Question: Which Potency does the source give for `COc1ccccc1CN1C[C@@H]2C[C@@H](c3ccc(Cl)cc3)N3CCC[C@@]23C1=O` here?
Answer: The Potency was inconclusive [inhibitor, partial curve].

Question: Which Potency does the source give for `COc1ccc(CNC(=O)Cn2ccc3cc(S(=O)(=O)N4CCCC4)ccc32)cc1OC` here?
Answer: The Potency was inconclusive [inhibitor, single point].

Question: With `CC(C)(C)C(=O)Cn1ncc(Br)c(Br)c1=O` as the compound, how does the Potency read?
Answer: The Potency was active: 10 µM.

Question: With `CCOC(=O)[C@H]1NN=C(C(=O)OC)[C@@H]1c1ccccc1` as the compound, how does the Potency read?
Answer: Its Potency is inconclusive [inhibitor, partial curve].

Question: For `O=C(NNc1ccccc1[N+](=O)[O-])Nc1ccc(Cl)c(Cl)c1`, which Potency is on record?
Answer: The Potency was inconclusive [inhibitor, partial curve].

Question: Which Potency does the source give for `Cc1cccc(C)c1OCC(O)CN1CCN(c2ccccc2)CC1` (stereo not drawn) here?
Answer: Its Potency is “inactive”.

Question: Which Potency does the source give for `COCCCNC(=O)CC(NS(=O)(=O)c1ccc(Cl)cc1)c1ccco1` (stereo not drawn) here?
Answer: Its Potency is “inactive”.

Question: With `O=C(NC1CCCCC1)N1CCCC(c2nc3ccccc3[nH]2)C1` (stereo not drawn) as the compound, how does the Potency read?
Answer: The Potency was inconclusive [inhibitor, full curve, poor fit].

Question: Which Potency does the source give for `CCCNC(=O)CS(=O)(=O)Cc1nc(-c2ccccc2C)oc1C` here?
Answer: The Potency was inconclusive [inhibitor, single point].

Question: Which Potency does the source give for `Cc1ccc(-n2nnnc2SCC(=O)Nc2sccc2C#N)cc1` here?
Answer: The Potency was “inactive”.

Question: Which Potency does the source give for `Cc1ccc(OCCCC(=O)Nc2ccc(S(N)(=O)=O)cc2)cc1` here?
Answer: Its Potency is “inactive”.

Question: For `Clc1cccc(Cl)c1C[n+]1ccc2ccccc2c1`, which Potency is on record?
Answer: The Potency was inconclusive [inhibitor, partial curve].

Question: With `CCOc1ccc(CN2CCN(CC3=Cc4cccc(OC)c4OC3)CC2CCO)cc1` (stereo not drawn) as the compound, how does the Potency read?
Answer: The Potency was active: 10 µM.

Question: Which Potency does the source give for `COc1cc(NC(=O)CCCSc2nc(-c3ccco3)cc(C(F)(F)F)n2)cc(OC)c1OC` here?
Answer: Its Potency is inconclusive [inhibitor, partial curve].

Question: Which Potency does the source give for `COc1ccc(NS(=O)(=O)c2ccc(O)c(NC(=O)c3cc4c(C)nn(-c5ccc(F)cc5)c4s3)c2)cc1` here?
Answer: Its Potency is inconclusive [inhibitor, partial curve].

Question: For `OC(COc1ccc2c(c1)CCC2)CN1CCN(c2ccccc2F)CC1` (stereo not drawn), which Potency is on record?
Answer: Its Potency is inconclusive [inhibitor, partial curve, poor fit].

Question: Which Potency does the source give for `CCN(CC)c1ccc2nc3ccc(N)cc3[n+](-c3ccccc3)c2c1` here?
Answer: The Potency was active: 5.01 µM.

Question: With `O=C(Nc1ccccc1N1CCN(C(=O)c2ccccc2)CC1)c1ccc(Cl)cc1` as the compound, how does the Potency read?
Answer: The Potency was inconclusive [inhibitor, single point].

Question: With `FC(F)(F)c1cccc(N2CCN(C(=S)NC3CCCC3)CC2)c1` as the compound, how does the Potency read?
Answer: Its Potency is active: 31.6 µM.

Question: Which Potency does the source give for `CN(C(=O)CCN1C(=O)c2ccccc2C1=O)c1ccccc1` here?
Answer: The Potency was “inactive”.

Question: For `COc1ccc(CNC(=S)Nc2ccc3nc(N4CCOCC4)cc(C)c3c2)cc1`, which Potency is on record?
Answer: The Potency was inconclusive [inhibitor, partial curve].

Question: Which Potency does the source give for `COc1ccccc1COC(=O)c1cccc(S(=O)(=O)N2CCCC2)c1` here?
Answer: The Potency was inconclusive [inhibitor, single point].

Question: With `Cc1ccc(S(=O)(=O)N(C)CC(=O)NCc2ccncc2)cc1` as the compound, how does the Potency read?
Answer: Its Potency is inconclusive [inhibitor, single point].

Question: With `CCOc1c([N+](=O)[O-])cc2c(C)c(C(=O)N3CCN(C)CC3)oc2c1OCC` as the compound, how does the Potency read?
Answer: The Potency was “inactive”.

Question: With `Cc1cc(C(F)F)n2nc(C(=O)Nc3cccc(C(F)(F)F)c3)nc2n1` as the compound, how does the Potency read?
Answer: Its Potency is “inactive”.

Question: With `Cc1ccc(S(=O)(=O)N2CCC(C(=O)OC(C)C(=O)N(C)c3ccccc3)CC2)cc1C` (stereo not drawn) as the compound, how does the Potency read?
Answer: The Potency was inconclusive [inhibitor, single point].

Question: With `Cc1onc(-c2ccccc2Cl)c1C(=O)NCc1nc(-c2ccccc2)no1` as the compound, how does the Potency read?
Answer: The Potency was inconclusive [inhibitor, single point].

Question: For `O=C(Nc1nc(-c2ccccc2)cs1)c1ccc(=O)[nH]c1`, which Potency is on record?
Answer: The Potency was inconclusive [inhibitor, partial curve].

Question: With `COCCn1c(SC(C)C(=O)NCC2CCCO2)nc2scc(-c3ccc(F)cc3)c2c1=O` (stereo not drawn) as the compound, how does the Potency read?
Answer: Its Potency is inconclusive [inhibitor, single point].

Question: Which Potency does the source give for `CCCCNCc1cc(Br)c(OCc2cccs2)c(OC)c1` here?
Answer: The Potency was inconclusive [inhibitor, single point].

Question: For `CC(=O)Nc1ccc(S(=O)(=O)N2CCN(Cc3ccccc3[N+](=O)[O-])CC2)cc1`, which Potency is on record?
Answer: The Potency was inconclusive [inhibitor, single point].

Question: Which Potency does the source give for `Cc1ccsc1/C=C1/SC(=O)N(CC(=O)N2CCOCC2)C1=O` here?
Answer: The Potency was “inactive”.

Question: Which Potency does the source give for `COc1cccc(C(=O)Nc2ccc3c(c2)CCCN3C(=O)c2cccs2)c1OC` here?
Answer: The Potency was active: 4.47 µM.

Question: With `[O-]/C(=C(\C(=S)Nc1ccc(SC(F)F)cc1)[n+]1ccccc1)c1ccc(Cl)cc1Cl` as the compound, how does the Potency read?
Answer: The Potency was active: 12.6 µM.

Question: Which Potency does the source give for `CC1CCN(C(=O)N2c3ccccc3Sc3ccccc32)CC1` here?
Answer: The Potency was “inactive”.

Question: With `Cc1cccc(NC(=O)COC(=O)C2C3CC4OC(=O)C2C4C3)c1C` (stereo not drawn) as the compound, how does the Potency read?
Answer: Its Potency is “inactive”.

Question: For `COc1cc2c(cc1OC)CN(C(=O)c1cc(Cl)nc(Cl)c1)CC2`, which Potency is on record?
Answer: The Potency was inconclusive [inhibitor, full curve, poor fit].

Question: With `Cc1ccc(NC(=O)N(Cc2ccc3c(c2)OCO3)Cc2cc3cc4c(cc3[nH]c2=O)OCCO4)cc1` as the compound, how does the Potency read?
Answer: The Potency was inconclusive [inhibitor, single point].

Question: With `C=CCNC(=S)NNC(=O)c1ccc(OCCC)cc1` as the compound, how does the Potency read?
Answer: Its Potency is “inactive”.

Question: With `CCCc1cc(=O)oc2cc(C)cc(OC(=O)c3ccco3)c12` as the compound, how does the Potency read?
Answer: Its Potency is inconclusive [inhibitor, partial curve].

Question: Which Potency does the source give for `c1ccc(CSc2ccc(-c3ccccn3)nn2)cc1` here?
Answer: The Potency was inconclusive [inhibitor, single point].

Question: Which Potency does the source give for `C=CCn1c(O)c(N=NC(=O)c2cccnc2)c2cc(Br)ccc21` here?
Answer: Its Potency is inconclusive [inhibitor, full curve, poor fit].

Question: For `O=C(CSc1nnc(-c2ccco2)o1)N1CCN(c2ccccc2)CC1`, which Potency is on record?
Answer: The Potency was inconclusive [inhibitor, single point].

Question: For `CCc1ccc(NC(=O)/C(C#N)=C/c2cc3ccc(C)cc3nc2N2CCOCC2)cc1`, which Potency is on record?
Answer: Its Potency is “inactive”.

Question: For `COC(=O)CCC(=O)OC1(C)C(=O)C=C2C=C(C3CC3)N(CC3CC3)C=C2C1=O` (stereo not drawn), which Potency is on record?
Answer: Its Potency is “inactive”.

Question: For `COc1ccc(F)cc1C(=O)C1CCCN(Cc2ccc(Sc3nncn3C)o2)C1` (stereo not drawn), which Potency is on record?
Answer: Its Potency is “inactive”.

Question: For `Cc1ccc(CN2C(=O)CCC2C(=O)NCCCN2CCC(C)CC2)cc1` (stereo not drawn), which Potency is on record?
Answer: Its Potency is inconclusive [inhibitor, partial curve].

Question: With `CCN(CC)C(=S)SCC(=O)Nc1cccc(C(F)(F)F)c1` as the compound, how does the Potency read?
Answer: The Potency was inconclusive [inhibitor, single point].

Question: For `O=C(N/N=C/c1c[nH]c2ccccc12)c1cc(-c2cccc3ccccc23)n[nH]1`, which Potency is on record?
Answer: Its Potency is inconclusive [inhibitor, partial curve].
